In the supplement of paper PMC3334620:
Whole data set: some 33,000 sequences, median “E-score (-0.5 to 0.5)” near -0.012, cut for the highest 2% near 0.27. The list shows a part of the results.

molecular target: T1, Vhr1 (UniProt P40522); assay: PBM E-score (8-mer binding enrichment) (E-score (-0.5 to 0.5)); higher = stronger / more preferred TF binding; most listed sequences are background and not binding sites; details: protein concentration: 200 nM; construct: GST-full length
T1 sequence: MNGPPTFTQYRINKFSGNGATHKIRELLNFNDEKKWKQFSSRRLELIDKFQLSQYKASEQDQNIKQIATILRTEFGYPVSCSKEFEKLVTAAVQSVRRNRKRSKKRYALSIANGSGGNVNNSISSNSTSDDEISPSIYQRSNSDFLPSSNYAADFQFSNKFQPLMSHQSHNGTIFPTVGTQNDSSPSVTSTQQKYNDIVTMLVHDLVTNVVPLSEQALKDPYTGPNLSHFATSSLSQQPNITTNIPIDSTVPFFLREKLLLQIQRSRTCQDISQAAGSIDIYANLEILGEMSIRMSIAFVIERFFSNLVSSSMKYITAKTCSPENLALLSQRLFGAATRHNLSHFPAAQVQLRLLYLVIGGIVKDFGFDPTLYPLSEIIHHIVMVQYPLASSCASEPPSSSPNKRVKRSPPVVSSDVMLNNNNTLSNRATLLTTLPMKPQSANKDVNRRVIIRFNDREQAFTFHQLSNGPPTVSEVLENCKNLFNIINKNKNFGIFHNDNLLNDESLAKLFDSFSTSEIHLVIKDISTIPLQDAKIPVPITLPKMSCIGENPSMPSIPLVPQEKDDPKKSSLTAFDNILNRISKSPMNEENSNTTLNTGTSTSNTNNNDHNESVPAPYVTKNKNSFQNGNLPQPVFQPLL
How it was run: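 E-scores (a modified Wilcoxon-Mann-Whitney statistic) were assigned by the Universal PBM Analysis Suite to every ungapped eight-base word pooled with its reverse complement. The input came from universal all-10-mer Agilent arrays made double-stranded by primer extension and probed with GST-tagged yeast transcription factors at about 100-200 nM. Fluorescent anti-GST detected bound protein, and masliner normalised the scans.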

Sequence	PBM E-score
AACGAATG	0.0805
CAGTATAC	0.231
CAAATACG	-0.187
CGGGGTTC	0.0432
GGGGGAAA	-0.0722
CTAAATGC	-0.00679
AAAGGGAA	-0.125
AAATCATG	0.29
CCGTAAAG	-0.182
GGCGCCCA	0.0282
CTGGTGGA	-0.0102
GGAGCCCC	-0.144
CAAAGAGC	-0.135
CTTTTCAA	-0.129
ATTCAGCA	0.0595
CGCCGAGC	0.059
CCTTGTGC	-0.0588
TGCCCCAA	0.0393
CGTAGACA	-0.33
GAGGTTAC	0.0302
GAAAATAC	-0.00171
ATGCGAAG	-0.137
CCAAAATA	-0.00401
AATCGATG	0.107
AAAGGTAC	-0.0793

Sequence	PBM E-score
TCCCCCGA	0.00078
CATGTCAC	0.0859
ATACTGAG	0.302
CAACAGAA	-0.128
ATTAGAAG	0.0266
AGGTTGCA	0.0347
ATCCGAGG	0.197
GATGGTTA	0.191
CAGACAAG	-0.0442
AAATCGAA	-0.079
CCAGGAGG	0.00619
CAGGCCAG	-0.0406
ACGTTCGG	-0.08
GCACGAGC	0.126
GCATAGAC	-0.104
AGAAACAT	-0.0987
AGGGACCA	-0.117
GCTCCGCC	0.118
ACTGTTAG	0.0101
AGTCTACC	-0.0695
GCGTACTA	-0.0551
ATGAGCAA	0.0779
AAGACGAT	-0.164
AGCGCGCC	-0.0121
GACACCCC	-0.0121

Sequence	PBM E-score
AGGACAGC	-0.0735
CACTAACC	0.0442
ACAAGTGA	-0.154
CGAAGTGA	0.108
AACGATCT	-0.0872
ATACAGGA	0.0562
GCTACTCA	0.271
AGCGCACT	-0.205
ACCATCGG	0.064
ACCGCGTA	0.0793
CCAACGGA	-0.00786
AGAAACTC	-0.051
CCGGTCAC	0.12
CTCAACTC	-0.0523
CCAAGGTC	-0.0964
GCGGTCTA	0.0229
AGCAATTG	-0.308
ACGCAGCT	-0.045
GGAACCAC	0.214
CATCCAGG	0.0327
ATATACTC	0.191
CACTATAA	-0.121
AAGCCGGC	-0.0871
AGCGTATA	0.179
CCTTGTAC	-0.106

Sequence	PBM E-score
CCCCATAC	0.0656
AGCTCAGG	0.107
AGTTTTGG	-0.143
GTGACCTA	-0.16
AAATCCGA	0.0516
CGTGGTAG	0.0791
CGCTGATC	0.115
TAACCGAA	-0.128
ATCTGATC	0.085
GGTGAATA	-0.00242
AAACAGAC	0.034
ACGGACTA	-0.0237
CCGTCGCC	0.0171
CGCTTAAG	-0.225
AGGGCATC	-0.246
CATGCGTA	0.182
CCAAGAAA	-0.0428
TGCACGCA	-0.0577
AATACTAA	-0.0324
ATCAAAAT	-0.0589
GGTAGGAA	-0.029
AACGTTCA	-0.331
AAGGGCCG	-0.242
GGTACCCA	-0.0268
CTCGGGCA	0.0687

Sequence	PBM E-score
CTTAGTGA	0.151
AGACCATA	0.18
CGAGCCGA	0.203
GCAAGTCC	-0.144
AACATGCC	0.0507
CCGCTACA	0.0275
ATTACCAA	0.0709
CAACTACA	0.177
CCCTGGGA	-0.168
GCCAGCCA	0.0444
ATGTACCA	0.155
CGGTGGAC	0.0511
GACATGGA	0.136
CCTGGAGA	-0.0828
GATGTGAC	0.227
GATCGATC	0.0343
CACTCGAG	-0.029
CCTCCTCC	-0.0203
GCTTACAA	-0.0422
AGCCTCGA	0.088
AAAGGGAT	-0.232
AGAAAGCC	-0.141
ACCCGCGG	0.275
CTCTCCTC	-0.179
CGTTCTAC	-0.0859

Sequence	PBM E-score
CAAGAAAA	-0.133
TACCCGCA	0.238
CAATGGAG	-0.0266
AGTCACCG	0.418
AGAAACCC	-0.00112
TAATGTAA	0.14
AGCAGCCA	-0.128
GACTTGAA	-0.152
CCCTGAAG	-0.187
ACAATCGT	0.0768
GGTACTAA	0.166
GTGGCTAA	0.173
ACGATCCC	0.0196
CCAAGCGG	0.0627
ACCTGATA	0.145
CCCGTTCA	-0.0417
CCAACAGG	-0.123
CTATATAC	0.241
AAAGGGGG	-0.193
TTGACAAA	-0.298
CGTCCATA	0.0491
GCGGTATA	0.107
GGCCACCA	0.0226
CGGAATTA	-0.193
AGAGCAAG	0.013

Sequence	PBM E-score
ACACGAGT	0.188
AGAGATCC	-0.0438
CTAGCCGC	0.0646
CCACTTAC	0.175
GGCGCGCC	0.152
ACTACAAT	0.277
ATTGCAAG	-0.178
AGATCACA	-0.03
AAGGCTAT	-0.0977
AGGCAGAA	-0.00902
CATGTGGC	0.108
CCCGAAAG	-0.0441
CGATCTAC	-0.0502
GTTGCTAA	0.15
CTGTGAAG	-0.0687
CCCTGTGA	0.0176
CGAACAGC	-0.0471
CCTGTTAC	0.0285
ATTTCCCA	-0.0342
ATAACACG	0.154
AGGCATCC	-0.147
GGAAGTTA	0.00048
